This is an account of results in the supplement of paper PMC11417369.

This is one part of the list.

This experiment relates to PfHDP1 homeodomain (GST-tagged). In words: gcPBM binding intensity (ln(normalized median fluorescence intensity)); higher = stronger DNA binding. A digest of the protocol:
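DNA-binding domains from P. falciparum, fused to GST and produced in E. coli, were put on an Agilent 4 × 180k double-stranded probe array for 1 h in 1× PBS holding 1% milk, 0.2 mg/ml BSA, 0.5% salmon testes DNA and 0.03% Triton X-100. Probes were primer-extended, 36 bp long and drawn from intergenic genomic regions, with negative controls included. After Alexa488 anti-GST antibody detection and a 488 nm scan, binding intensity was set as the highest Masliner-normalised natural-log median intensity across replicate spots of either probe orientation.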
Regarding “GATGAAAATAGAAATACACACTAAAAAATAAAATTA [CACACA_site4764]”, the “gcPBM binding intensity (ln)” value was found to be 6.21. In the case of “ACATATAATATATAATGTACAAAATTGTTAACAATA [XGTACX_site3798]”, the “gcPBM binding intensity (ln)” value amounted to 6.74. Take “GAAAGGATATATATATATATATATATAATACATTTC [GTGCAC_negctrl_site677]”: the “gcPBM binding intensity (ln)” value worked out at 7.06. The same measure for “TATATATACATACATACACACATATATATATATATT [CACACA_site4110]”: 6.95. With “CTCAATGTTTGCGATACATGCAAAAATTTTTAGAAT [TGCATGCA_site165]”, the “gcPBM binding intensity (ln)” value was found to be 6.54. With “TACATTTCATTGTAATCATAAAAAATAAAGAAAAAA [XGTACX_negctrl_site542]”, the “gcPBM binding intensity (ln)” value was 6.34. Take “AAAAAAAAAAAAAAAGTGCACAGTCGTTTTAAAAAA [GTGCAC_site9848]”: the “gcPBM binding intensity (ln)” value came out at 9.31. For “TCTATATCTTTCAACACACAAATTTTTTTTTCCATC [CACACA_site4238]”, the “gcPBM binding intensity (ln)” value worked out at 6.52. Consider “AAGATAATATTTTCTTGTACGCATGCACATACAAAT [XGTACX_site7181]”, for which the “gcPBM binding intensity (ln)” value came out at 7.76. Regarding “ATGCAAAGTTTATAAAGTACATAAGTCAAAATAAAA [XGTACX_site1441]”, the “gcPBM binding intensity (ln)” value was 6.6.

“CTTTTCTCCCTCCATAGTACAATTATAAAAATATAT [XGTACX_site3090]”: the “gcPBM binding intensity (ln)” value stood at 6.42. Regarding “AAATCATTTAAGAACACACAAATATTTCCATTAAAT [CACACA_site6808]”, the “gcPBM binding intensity (ln)” value worked out at 6.67. Regarding “ATTAACTATCATAACACACACAGTAGACATATTTTT [CACACA_site1822]”, the “gcPBM binding intensity (ln)” value came to 6.81.

Take “TTATTTTTCCGGAATAGTACATAGACGCAGATATAA [XGTACX_site6356]”: the “gcPBM binding intensity (ln)” value was 6.79.

Turning to “TAGAAGCATGGACACACACACATACATACCCATACA [CACACA_site4916]”, the “gcPBM binding intensity (ln)” value was 6.93. For “TTAACATATTATAAGTGTACATATTTATAAACAAGA [XGTACX_site8806]”, the “gcPBM binding intensity (ln)” value worked out at 6.69. Consider “ATTTTGAAAAATAAAAGTACATATAATATATCTACA [XGTACX_site7185]”, for which the “gcPBM binding intensity (ln)” value amounted to 5.93. With “TCTGTTAATATTTATACACACATATTTATTTATATA [CACACA_site6658]”, the “gcPBM binding intensity (ln)” value is 6.94. In the case of “ATATACATATATATGGGTACATATATTAATATATAT [XGTACX_site8358]”, the “gcPBM binding intensity (ln)” value amounted to 6.74. On to “CACTCCATATTATACACACACACAAATGAAAAAAAT [CACACA_site3019]”, for which the “gcPBM binding intensity (ln)” value was found to be 7.33. The same measure for “TTTAGATATATGGTAGTGCATAATAAAAATATAGCC [GTGCAC_site9449]”: 9.6; for “AATATTACAAAATATTGTCCGTACAAATTTTTAATA [XGTACX_site8129]”: 6.11; for “AAAAAAAAAAAAAAGACACACATATATATATATATA [CACACA_site633]”: 9.46. “GATGATAAAATATGTACACACAGTTTATACATTTTG [CACACA_site4055]”: the “gcPBM binding intensity (ln)” value was 6.23. Under “TTCCCTTTTTTTATTTGTACTTATCTTTTAAATAAT [XGTACX_site2497]” stands 6.98; under “AATTATAATTAATAGAGTACTGAATATATATATATA [XGTACX_site8683]”, 8.9; under “AGCATTTTTCATTTTGCACACATGTTTTATGTGTAT [CACACA_site3454]”, 10.5. For the sequence “ATATCGGGTGCATTAACACACATTTATTTGAATAAA [CACACA_site2350]”, the “gcPBM binding intensity (ln)” value amounted to 9.57. Take “GCTTCTTAGTATACTTTATAAAATATATATTAAATA [XGTACX_negctrl_site57]”: the “gcPBM binding intensity (ln)” value came to 7.06. Under “TAAAATATAATAAAATGTACACGCATGCAATAGAAT [XGTACX_site7434]” stands 7.69; under “ATATATCATAATAGAGGTACACATATTATATATATA [XGTACX_site782]”, 7.63. “TTTATAAATATATATACACACACATATATATTATAT [CACACA_site8099]”: the “gcPBM binding intensity (ln)” value was determined as 7.03. Regarding “ATATTAAATATAATTTGTACGCATTTTTTTTTTTTT [XGTACX_site1910]”, the “gcPBM binding intensity (ln)” value worked out at 6.27. Under “TTTTTTTTATTAGTGTGTACGCATTTATTTATACAT [XGTACX_site1599]” stands 6.97; under “TTTAAATTATGAAATTGTACATATAAAAATATTTTA [XGTACX_site4796]”, 6.21. For the sequence “TATATATTATTTAAAACACACAAAAAAAAAAATTAT [CACACA_site89]”, the “gcPBM binding intensity (ln)” value is 6.7. Turning to “TTAAAAATATATGAATGTACATATATTTATATATAT [XGTACX_site77]”, the “gcPBM binding intensity (ln)” value was 6.6. For the sequence “TACTTACCAAAATACACACACACACCCAATATATAA [CACACA_site1871]”, the “gcPBM binding intensity (ln)” value was found to be 7.04. Turning to “TTTTTGTATTCTACCTTAACAATCTTAAAGATTTTT [CACACA_negctrl_site1157]”, the “gcPBM binding intensity (ln)” value is 6.44. “TTTTTTTTTTTAAAATGTACACGTAATTACATATAT [XGTACX_site752]”: the “gcPBM binding intensity (ln)” value stood at 6.69. Under “TGATGGTTACGTTTATGTACACATTACAGTTAGTAT [XGTACX_site998]” stands 6.32; under “AAAATATATTAAGGCACACACATACATATATATATA [CACACA_site3723]”, 8.86. In the case of “GAGTTAATATTTAAAAGTACAAGATGAATGTAAAAA [XGTACX_site5810]”, the “gcPBM binding intensity (ln)” value was 6.59. For “ACTACATTATTGCATTGTACTTTTTTTTTTTTTTTA [XGTACX_site4605]”, the “gcPBM binding intensity (ln)” value turned out to be 6.8.

For the sequence “TTAAAAATTATATAAGTGCATTAATATTTAGAACAA [GTGCAC_site9773]”, the “gcPBM binding intensity (ln)” value is 9.65. Under “TATATTGAATGCAAAAGTACATTTGTGTAAATTTAT [XGTACX_site7611]” stands 7.22. Consider “TTTTCATATTATAGTGCACACAAAAATATATATATG [CACACA_site8929]”, for which the “gcPBM binding intensity (ln)” value was determined as 10.3.

For “TTATTTAGTATATTATGTACATACAATGCCTGGGAA [XGTACX_site4578]”, the “gcPBM binding intensity (ln)” value is 6.87. Consider “TAAAATATATATATGTGTACATAACATATAATTTTT [XGTACX_site1725]”, for which the “gcPBM binding intensity (ln)” value was found to be 6.24.

Consider “TATTGTTGTTCATGTACACACTATAATAAAAGCAAT [CACACA_site6148]”, for which the “gcPBM binding intensity (ln)” value came to 7.02. As for “ATATGTTACAGACACACACACACATAAAAAAACAAA [CACACA_site3248]”, the “gcPBM binding intensity (ln)” value stood at 7.18. “AGTATAAAAATATATTTACACACTATATATATCGAA [CACACA_site8494]”: the “gcPBM binding intensity (ln)” value was 6.57. Regarding “TTTTTTACTTTTGAGACATTTCATATTTTTATTCAC [GTGCAC_negctrl_site730]”, the “gcPBM binding intensity (ln)” value turned out to be 6.45. Under “TGATTGAGTAAAATGGGTACATATACACTATTACAT [XGTACX_site5232]” stands 6.14; under “TACAGGAATATTTTTACACACTAAAAATTATAAAAT [CACACA_site1649]”, 6.3; under “AAAGGTTCACATTATATAGTTATGTAATATATATGT [CACACA_negctrl_site542]”, 6.18.
